{
  "source": "PubChem BioAssay AID651820",
  "about": "(National Center for Advancing Translational Sciences (NCATS), 2012)",
  "note": "Hit rate of the full screen: of about 340,000 compounds, about 12,000 (3.5%) were called active. The inconclusive results got no clear call from the source; some entries with a clear call stand among them for comparison. Calls follow the shape of the dose curve; as a rule, active = well fitted inhibition curve with a large enough effect; inconclusive = small, poorly fitted or top-dose-only effect, or another doubt; inactive = no such curve, though single readings can be large or run the other way. Potencies of inconclusive entries are left out as doubtful fits.",
  "data": [
    {"test": "qHTS Assay for Inhibitors of Hepatitis C Virus (HCV); also: potency is read from the fitted curve at half-maximal effect; tags tell the direction and shape of the fitted curve; as to activity change, negative = inhibition: % is scaled to controls: 0 for no effect and ±100 for the full control effect", "conditions": "Huh7.5.1 HCVcc-Cre (HCVcc is cell-culture hepatitis C virus) infection, luciferase reporter, 44 h; activity change, negative = inhibition: at 41.8 µM (top of the series) unless noted", "summary_of_the_method": "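Infectious HCV cell culture screen: compound-treated cells (1,000/well, pre-plated 4 h) are infected with HCVcc-Cre at roughly 0.5 moi and grown 44 h. Infection is quantified by luciferase signal after 15 min substrate incubation at room temperature.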", "values": [
      {"molecule": "COc1cc2c(cc1OC)C(c1ccc3c(c1)OCO3)CC(=O)N2", "note": "(configuration not stated)", "Potency": "inconclusive [inhibitor, single point]"},
      {"molecule": "C[C@H](NC(=O)c1nc[nH]c1C(=O)NCCCCCNC(=O)OC(C)(C)C)c1ccccc1", "Potency": "inconclusive [inhibitor, partial curve]"},
      {"molecule": "O=C(NC1(Cc2ccccc2)CCN(CCCc2ccccc2)C1=O)c1ccccc1", "note": "(configuration not stated)", "Potency": "inconclusive [inhibitor, partial curve]"},
      {"molecule": "NC(=S)N=Nc1c(O)n(Cc2ccccc2)c2ccccc12", "Potency": "inconclusive [inhibitor, partial curve, poor fit]"},
      {"molecule": "CSc1oc(-c2cccs2)nc1S(=O)(=O)c1ccccc1", "activity change, negative = inhibition": "inactive: -17.8%"},
      {"molecule": "O=C(CCN1C(=O)c2ccccc2C1=O)Nc1ccc(F)cc1", "Potency": "inconclusive [inhibitor, single point]"},
      {"molecule": "COc1ccc(-n2nnnc2SCC(N)=O)cc1", "activity change, negative = inhibition": "inactive: 5.51%"},
      {"molecule": "COc1ccc(C(=O)Nc2nnc(CCc3ccccc3)s2)c(OC)c1", "Potency": "inconclusive [inhibitor, partial curve]"},
      {"molecule": "CCC(C)(C)n1nnnc1C(c1cc2cccc(C)c2[nH]c1=O)N1CCCC1", "note": "(configuration not stated)", "Potency": "inconclusive [inhibitor, partial curve]"},
      {"molecule": "COc1ccc2[nH]c(C(=O)Nc3ccc4c(c3)OCO4)cc2c1", "activity change, negative = inhibition": "inactive: -12.1%"},
      {"molecule": "CCCCCn1c(SCCN2CCOCC2)nc2c1c(=O)[nH]c(=O)n2C", "Potency": "inconclusive [inhibitor, single point]"},
      {"molecule": "O=C(Oc1ccc(Cl)c2cccnc12)c1cccnc1", "Potency": "inconclusive [inhibitor, single point]"},
      {"molecule": "O=C(O)c1cc(N/N=C/c2cccnc2)ccc1Cl", "activity change, negative = inhibition": "inactive: 10.2%"},
      {"molecule": "CSCCC(NC(=O)c1ccccc1Br)C(=O)NCC(c1ccco1)N1CCCCC1", "note": "(configuration not stated)", "activity change, negative = inhibition": "inactive: 28.2%"},
      {"molecule": "O=C(C1=NN(c2ccccc2)C2C(=O)N(c3ccccc3)C(=O)C12)c1ccccc1", "note": "(configuration not stated)", "activity change, negative = inhibition": "inactive: -0.927%"},
      {"molecule": "COc1ccc(/C=N/NC(=O)c2cc[n+]([O-])cc2)cc1", "activity change, negative = inhibition": "inactive: -4.89%"},
      {"molecule": "CCc1cc(CC)c(/C=N/NC(N)=O)c(CC)c1", "Potency": "active: 11.2 µM"},
      {"molecule": "Cn1c(CCc2nc3ccccc3[nH]2)nnc1SCC#N", "activity change, negative = inhibition": "inactive: 5.93%"},
      {"molecule": "CCN(CC)CCCN(C(=O)c1ccc(F)cc1)c1nc(-c2ccc(OC)cc2)cs1", "Potency": "inconclusive [inhibitor, single point]"},
      {"molecule": "CCn1c(SCC(=O)NCCc2ccccc2)nc2sc3c(c2c1=O)CCN(C)C3", "Potency": "inconclusive [inhibitor, partial curve]"},
      {"molecule": "COc1ccc(CCN2C(=O)c3ccccc3NC2c2cc(Cl)c(O)c(OC)c2)cc1", "note": "(configuration not stated)", "activity change, negative = inhibition": "inactive: -13%"},
      {"molecule": "Cc1ccsc1C(=O)OCC(=O)N1CCOCC1", "activity change, negative = inhibition": "inactive: 14.4%"},
      {"molecule": "Cc1cccc(/C=C2\\Oc3cc(OS(C)(=O)=O)ccc3C2=O)c1", "Potency": "inconclusive [inhibitor, single point]"},
      {"molecule": "C[C@@H](NC(=O)c1[nH]cnc1C(=O)Nc1nccs1)c1ccccc1", "activity change, negative = inhibition": "inactive: 16.2%"},
      {"molecule": "CCc1nc2c(cnn2-c2ccc(Cl)cc2)c(=O)n1-c1ccc2c(c1)OCCO2", "Potency": "inconclusive [inhibitor, single point]"},
      {"molecule": "O=C(c1ccccc1)c1ccc(OCC(O)CN2CCN(Cc3ccccc3)CC2)cc1", "note": "(configuration not stated)", "Potency": "inconclusive [inhibitor, single point]"},
      {"molecule": "CSc1ccccc1C(=O)C1CCCN(Cc2cccc(C)n2)C1", "note": "(configuration not stated)", "activity change, negative = inhibition": "inactive: -8.51%"},
      {"molecule": "CC(=O)C1=NN(c2ccccc2)C(c2ccc3c(c2)OCO3)N1c1ccccc1", "note": "(configuration not stated)", "Potency": "inconclusive [inhibitor, partial curve]"},
      {"molecule": "COc1ccc(/C=C/C(=O)NC(=S)Nc2ccccc2C(=O)NC2CCCCC2)cc1", "Potency": "active: 25.1 µM"},
      {"molecule": "CC(C)(C)c1cc(C(c2cccnc2)N2CCN(CCO)CC2)cc(C(C)(C)C)c1O", "note": "(configuration not stated)", "Potency": "active: 10 µM"},
      {"molecule": "COc1cc2c(cc1NC(=O)c1cccc([N+](=O)[O-])c1C)oc1ccccc12", "Potency": "active: 2 µM"},
      {"molecule": "CCOC(=O)C1CCN(S(=O)(=O)c2ccc3c(c2)N(C(C)=O)CC(C)S3)CC1", "note": "(configuration not stated)", "Potency": "inconclusive [inhibitor, partial curve]"},
      {"molecule": "Nc1cc2c(cc1Cl)N(Cc1ccccc1)C(=O)CO2", "Potency": "inconclusive [inhibitor, single point]"},
      {"molecule": "C/C(=N\\NC(=O)C(N)=O)c1cccc([N+](=O)[O-])c1", "activity change, negative = inhibition": "inactive: 6.92%"},
      {"molecule": "CCOC(=O)Cc1csc(NC(=O)c2cc(-c3ccncc3)nc3ccccc23)n1", "Potency": "inconclusive [inhibitor, partial curve]"},
      {"molecule": "O=S(=O)(c1ccccc1)N1CCN(c2cc(-c3ccccc3)nc3ncnn23)CC1", "Potency": "inconclusive [inhibitor, single point]"},
      {"molecule": "O=C(CN1CCC(C(=O)c2ccc(F)cc2)CC1)NCc1ccccc1F", "Potency": "active: 11.2 µM"},
      {"molecule": "Cc1ccc(/C=N/NC(=O)C(C)Oc2cccc3ccccc23)o1", "note": "(configuration not stated)", "Potency": "inconclusive [inhibitor, single point]"},
      {"molecule": "COC(=O)C1=C(c2cccc(C#N)c2)C[C@@H]2CC[C@H]1N2C(=O)NCC1CC1", "activity change, negative = inhibition": "inactive: 25.7%"},
      {"molecule": "O=C(Nc1ccc(-n2nncc2-c2ccco2)cc1)c1ccc(F)cc1", "Potency": "inconclusive [inhibitor, single point]"},
      {"molecule": "COCCNC(=O)CCCn1c(=O)c2ccccc2n(Cc2ccccc2C#N)c1=O", "activity change, negative = inhibition": "inactive: 9.95%"},
      {"molecule": "N#CC1=C(N)NC(SCC(=O)Nc2ccccc2)=C(C#N)C12CCCC2", "activity change, negative = inhibition": "inactive: -17.2%"},
      {"molecule": "CC(=O)Nc1ccc(NC(=O)CSc2nc3c([nH]c4ccccc43)c(=O)n2-c2ccccc2F)cc1", "Potency": "inconclusive [inhibitor, single point]"},
      {"molecule": "CC1(C)CC2CC(C)(CN2S(=O)(=O)c2ccc(C(=O)Nc3ccc(Cl)c(S(=O)(=O)N4CCOCC4)c3)cc2)C1", "note": "(configuration not stated)", "Potency": "inconclusive [inhibitor, partial curve]"},
      {"molecule": "COc1ccc(C(C(=O)NCC2CCCO2)N(C(=O)CNC(=O)c2cccs2)c2ccccc2)cc1OC", "note": "(configuration not stated)", "activity change, negative = inhibition": "inactive: -2.53%"},
      {"molecule": "COc1ccc(-c2nn(-c3ccccc3)cc2C(=O)Nc2nccs2)cc1", "Potency": "inconclusive [inhibitor, single point]"},
      {"molecule": "CCOC(=O)c1c(-c2ccc(OC)cc2)oc2cc(Br)c(O)cc12", "Potency": "inconclusive [inhibitor, partial curve]"}
    ]}
  ]
}
